# Laboratory results as given in the supplement of paper PMC3334620.
# The full ranking holds about 33,000 sequences; the median of “E-score (-0.5 to 0.5)” is about -0.016, and the highest 2% start at about 0.32. The list shows a part of the results.
# Molecular target: T1, Stp1 (UniProt B3LFK1)
# T1 sequence: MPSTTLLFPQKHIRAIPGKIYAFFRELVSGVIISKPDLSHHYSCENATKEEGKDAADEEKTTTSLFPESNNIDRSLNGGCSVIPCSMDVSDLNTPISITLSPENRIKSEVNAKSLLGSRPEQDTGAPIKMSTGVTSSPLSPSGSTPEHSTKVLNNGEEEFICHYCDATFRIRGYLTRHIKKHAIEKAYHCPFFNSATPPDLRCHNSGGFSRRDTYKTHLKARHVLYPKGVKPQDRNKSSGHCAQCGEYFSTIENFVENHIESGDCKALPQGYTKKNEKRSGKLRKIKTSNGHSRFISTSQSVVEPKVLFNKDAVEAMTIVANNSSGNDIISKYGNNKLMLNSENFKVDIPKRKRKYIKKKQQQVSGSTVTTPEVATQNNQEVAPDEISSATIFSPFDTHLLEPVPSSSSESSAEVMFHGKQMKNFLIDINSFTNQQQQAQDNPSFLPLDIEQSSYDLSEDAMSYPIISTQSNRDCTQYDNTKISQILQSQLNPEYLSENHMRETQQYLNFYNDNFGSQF
# Experiment: PBM E-score (8-mer binding enrichment) (E-score (-0.5 to 0.5)); higher = stronger / more preferred TF binding; most listed sequences are background and not binding sites
# Settings: protein concentration: 200 nM; construct: GST-full length
# Procedure, shortened: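 Yeast transcription factors carrying a GST tag, as full-length proteins or DNA-binding domains, were produced by PURExpress in vitro transcription/translation. About 100-200 nM protein was applied to universal all-10-mer Agilent arrays, double-stranded by primer extension on fresh or once-stripped slides. Bound protein was detected with fluorescent anti-GST, and scans were normalised with masliner. The Universal PBM Analysis Suite gave each ungapped eight-base word, pooled with its reverse complement, an E-score, a modified Wilcoxon-Mann-Whitney statistic.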
row,Sequence,PBM E-score
1,CGAATCCG,0.0661
2,CACGCTCC,0.00924
3,CAGATATA,0.111
4,ACCTTCAG,-0.156
5,CAGGCCGC,0.0538
6,GTAAATTA,0.0232
7,ATACCTTC,-0.106
8,TGGTTACA,-0.0623
9,ACCAGAAG,-0.145
10,ACAGACTA,0.00625
11,CGTATGAA,0.285
12,ATGGACTA,-0.151
13,AAACCCGC,0.229
14,CTTCTTTA,0.0599
15,CACACGAA,0.116
16,AAGGCGCG,0.4
17,ATTCCAAT,0.143
18,ATGCAATC,0.0729
19,ATGCCGAG,0.31
20,CCGGCTCA,0.0597
21,GCAAGTAA,0.0895
22,CTCGATTC,-0.0889
23,AACCGAAT,0.0369
24,ATCTGTCA,0.108

row,Sequence,PBM E-score
1,CTGCGAGC,0.043
2,AAATATCC,0.154
3,ACGCCGAC,0.204
4,CGGGTGGA,-0.162
5,TCGGTTAA,0.0071
6,ATTACGCC,0.0926
7,ATGGCTTC,0.111
8,ACTGAGAC,0.0346
9,CACCTTGG,-0.256
10,ACGTGGGC,0.0461
11,GCAGGCTA,-0.205
12,CTGCCGGA,0.02
13,AAATTGGT,0.18
14,ATTTCCGG,-0.0307
15,GTGTGGCA,0.224
16,ATCTTCAG,0.0977
17,CACAGGTA,-0.122
18,CTACCTAC,0.0793
19,GTGGAACA,-0.00491
20,CTGCCGGC,-0.0153
21,AGAAATTA,0.243
22,CAACGAAC,0.051
23,AGAGGAGA,-0.3
24,GGGGTCAC,-0.284

row,Sequence,PBM E-score
1,AACTACTT,-0.0113
2,CAAGCGGG,-0.168
3,GGCCGGTA,0.194
4,TAAGGGTA,-0.209
5,ATGCCGGA,0.0395
6,CAATAACC,0.0421
7,TCTCCCCA,-0.293
8,TACCCACA,-0.143
9,GAAACAGA,0.177
10,TAGATTGA,0.0779
11,CCATATCG,0.0866
12,ACTAAGCC,-5e-05
13,CCTTATAG,0.0305
14,ACCCTTCA,-0.132
15,CCCCCGGG,-0.275
16,TCGTGACA,0.0244
17,GCCGAGGA,0.0308
18,GAGGTGGA,-0.306
19,ACCGAAGG,-0.0987
20,AGAAGTAT,0.175
21,CGCGTAGA,0.00323
22,GGAGCAGA,-0.199
23,AGAAGGTC,-0.213
24,CATACCTA,-0.145

row,Sequence,PBM E-score
1,CAATAGAG,0.0636
2,ACGTGCCG,0.39
3,AGCACGGG,0.14
4,AGATAGGC,-0.12
5,CAGGGGTC,-0.312
6,CCTCGTCG,-0.0113
7,TGGAGCCA,-0.0285
8,AAGACTGG,-0.0732
9,CGACAGAG,-0.28
10,CGAGTCCG,0.128
11,TACTAAGA,0.0816
12,CTGGAAAA,0.129
13,ACCACAGC,-0.027
14,CTAGTTAA,0.0478
15,CTGCGGAC,0.145
16,ACTGCAGA,-0.0573
17,AACTCGGC,0.106
18,GGGTCCAC,-0.173
19,GTCTCGGA,-0.0542
20,AGGCTTGC,-0.31
21,AGAGCTCG,-0.149
22,CCTGATAG,-0.234
